92 molecules from PubChem BioAssay AID463173 (ICCB-Longwood Screening Facility, Harvard Medical School, 2010) can be followed below.

Structures are written as SMILES. In all, about 52,000 compounds went through this assay and about 4,300 (8.3%) were called active. Rule as the data show it: active = survival mostly below about 52% (no sharp cut-off); inactive = mostly above about 56%. The list shows a part of the results.

The test system of this assay is DeltatarO mutant. Briefly: S. aureus survival, RN4220 and DeltatarO strains – OD600, teichoic acid synthesis inhibitors, primary screen (AID 463173). The note with it: S. aureus RN4220 wild type/DeltatarO growth, OD600, 18 h, stronger effect = lower value, screened at 18.75 µg/mL (by protocol).
Regarding `CCOc1ccc(CCNC(=O)CCc2c(C)nc3c(-c4ccccc4)c(C)nn3c2C)cc1OCC`, the survival is inactive: 70%. With `C1CN(C(N2CCOCC2)N2CCOCC2)CCO1` the figure was inactive: 82%. `Cc1nc(Nc2ccc(Cl)cc2)cc(-c2ccccc2)n1`: the survival is active: -4%.

As to `CCOc1ccc(NC(=O)CC2C(=O)N(c3ccccc3)C(=O)N2C2CCCCC2)cc1` (configuration not stated), the survival is inactive: 67%.

Take `COc1ccccc1CNC(=O)NCc1noc2ccc(C)cc12`: the survival is inactive: 56%. Turning to `O=C(COC(=O)c1ccco1)NCC1CCCO1` (configuration not stated), the survival was inactive: 101%. For `COc1cccc(C2CC(=O)NC(SC)=C2C#N)c1` (configuration not stated), the survival is inactive: 89%.

Consider `CC(C)C(=O)N(Cc1ccccc1)S(=O)(=O)c1ccc2c(c1)oc(=O)n2C`, for which the survival is inactive: 44%. Regarding `Cc1ccc(-n2c(=O)c3c4c(sc3n(Cc3cccc(Cl)c3)c2=O)CCC4)cc1C`, the survival was inactive: 150%. Take `Cc1nc2nncn2c(NCc2ccc(Cl)cc2)c1C`: the survival was inactive: 77%.

In the case of `Cc1ccc(CN(C(=O)COc2ccc(Cl)c(C)c2)C2CCS(=O)(=O)C2)o1` (configuration not stated), the survival is inactive: 84%. Take `Cc1csc2nc(COC(=O)c3ccccc3NC(=O)COc3ccccc3F)cc(=O)n12`: the survival is inactive: 94%.

As for `Cc1ccc(Cl)cc1NC(=O)Cn1c(=O)n(CCCS(=O)(=O)C2CCCCC2)c(=O)c2ccccc21`, the survival is inactive: 61%. For `C=CCC(CC=C)(CNC(=O)C(=O)Nc1cc(C)ccc1OC)c1ccc(OC)c(OC)c1`, the survival was inactive: 96%.

Consider `CCOc1ccc(C2=NC(c3ccc(OC)cc3)=Nc3ccc(Cl)cc3N2)cc1`, for which the survival was inactive: 71%. `Cc1nc(Cc2ccc(OC(C)C)cc2)[nH]c(=O)c1CC(=O)O`: the survival was inactive: 110%. Regarding `COc1ccccc1CNC(=O)CN1C(=O)COc2ccc(S(=O)(=O)N3CCC(C)CC3)cc21`, the survival was inactive: 76%. For `O=C(Cn1cc(S(=O)(=O)N2CCCC2)c(S(=O)(=O)N2CCCC2)c1)Nc1cccc(F)c1`, the survival is inactive: 98%. With `CCc1ccc(NC(=O)C(C)n2nnc3sc(-c4ccccc4)cc3c2=O)cc1` (configuration not stated) the figure was inactive: 63%; with `COc1ccc(NC(=O)/C(C#N)=C/c2cc(C)n(-c3ccc(F)cc3)c2C)cc1`, inactive: 78%; with `CCOC(=O)c1cccc(NC(=O)C2CCCN(S(=O)(=O)c3ccc4c(c3)oc(=O)n4C)C2)c1` (configuration not stated), inactive: 80%.

Turning to `COc1ccc(Cn2c(=O)sc3ccccc32)cc1`, the survival was inactive: 74%. With `O=C(NC1CC2CCCC(C1)N2Cc1ccccc1)C1CC1` (configuration not stated) the figure was inactive: 69%; with `Cc1nc(NCCNC(=O)c2cccs2)c2c3c(sc2n1)CCCC3`, inactive: 99%; with `CCOc1ccc(N(CC)S(=O)(=O)c2cc(Br)cc3c2N(C(C)=O)C(C)C3)cc1` (configuration not stated), inactive: 60%. As for `Cc1cccc(N2CCN(C(=O)Cn3nc(C)n4cccc4c3=O)CC2C)c1` (configuration not stated), the survival was inactive: 90%. As to `CN(Cc1ccccc1)S(=O)(=O)c1nnc(NC(=O)c2cccc(Cl)c2)s1`, the survival is active: 1%. With `CCOC(=O)c1cc2c(nc1N)CC(C)(C)OC2` the figure was inactive: 99%.

On to `CCCCN(C)CCCNC(=O)Cn1ncc2c3ccccc3n(Cc3ccccc3)c2c1=O`, for which the survival is inactive: 149%. Take `Cc1cccc(NC(=O)CSc2nccn2Cc2ccc(F)cc2)c1C`: the survival is inactive: 94%. On to `Cc1cc(C)cc(OCC(=O)Nc2c(C)ccc3nsnc23)c1`, for which the survival was inactive: 63%. Regarding `COc1ccc(S(=O)(=O)c2cnc3ccc(Cl)cc3c2N2CCCCC2C)cc1` (configuration not stated), the survival was inactive: 134%.

For `Cc1ccccc1NC(=O)CSc1nc2nccnc2c(=O)n1CCc1c[nH]c2ccccc12`, the survival is active: 40%. Consider `CCN(CC)C(=O)CSc1nsc(SCC(=O)N(CC)CC)c1C#N`, for which the survival was inactive: 76%. In the case of `CCc1ccc(-n2nc(C)c3c(C)cc(=O)n(Cc4nc(-c5ccccc5)oc4C)c32)cc1`, the survival was inactive: 99%. For the molecule `Cc1ccc(NC(=O)CN2C(=O)CCc3cc(S(=O)(=O)N4CCOCC4)ccc32)cc1F`, the survival was active: 47%. As to `COc1ccc(OC)c(CNC(=O)c2ccc(Sc3ccc(C)cc3)c(N)c2)c1`, the survival was inactive: 80%. As for `Cc1cccc(CNC(=O)CCn2c(=O)c3cccn3c3ccc(F)cc32)c1`, the survival is inactive: 92%. In the case of `CCOc1ccc(CNC(=O)C2Cc3ccccc3N2C(=O)CC)cc1OC` (configuration not stated), the survival is inactive: 78%. With `CCCc1nn2c(=O)cc(COC(=O)c3ccccc3NC(=O)COc3ccccc3F)nc2s1` the figure was inactive: 84%. Consider `Cc1nc2c(C(=O)NCCCN(CC(C)C)CC(C)C)cnn2c(C)c1Cc1c(F)cccc1Cl`, for which the survival is inactive: 92%. With `CCCOC(=O)c1c(NC(=O)c2nc3ncccn3n2)sc(C(N)=O)c1C` the figure was inactive: 85%. With `COc1cccc(-c2cc(C(F)(F)F)n3ncc(C(=O)NN4CCN(C)CC4)c3n2)c1`, the survival was inactive: 106%.

Take `CCOc1ccccc1CN1CCN(S(=O)(=O)c2ccccc2)CC1`: the survival was inactive: 133%.

For `Cc1ccccc1NC(=O)c1ccc2c(c1)c(C)c(C)n2Cc1ccccc1`, the survival is inactive: 94%. With `COc1ccc(S(=O)(=O)N2CCCN(CC(=O)Nc3ccc(NC(C)=O)cc3)CC2)cc1`, the survival was inactive: 90%. `COCc1nc2ccccc2n1CCOc1cccc(C)c1`: the survival was active: 39%.

With `O=C(CN1N=C(c2ccc(Cl)cc2)CCC1=O)NCCc1ccc(Cl)cc1`, the survival was inactive: 94%. Regarding `O=C1CC(c2ccccc2)Sc2nc3ccccc3n21` (configuration not stated), the survival is inactive: 66%. With `COc1ccccc1NC(=O)CSC1=Nc2ccccc2C2=NC(CC(=O)NCc3ccco3)C(=O)N12` (configuration not stated) the figure was inactive: 124%; with `O=C(N/N=C/c1ccccc1)Nc1ccccc1`, inactive: 104%; with `COc1cccc(-n2c(=O)c3c(C)c(C)sc3n(CC(=O)NCc3ccc(C)cc3)c2=O)c1`, inactive: 59%.

As for `CC(C)(C)C(=O)Nc1cccc(-c2cn3cccnc3n2)c1`, the survival was inactive: 75%. For the molecule `Cc1ccc(-c2nnc(N3CCOCC3)c3ccccc23)cc1S(=O)(=O)N1CCN(C)CC1`, the survival is inactive: 97%. Turning to `COC(=O)c1cc2sccc2n1CCC#N`, the survival was inactive: 103%.

Consider `Cc1cccc(CSc2ncc(Cl)c(C(=O)Nc3sc4c(c3C(N)=O)CCCC4)n2)c1`, for which the survival is inactive: 112%. For the molecule `O=C(Cn1c(=O)nc(-c2ccccc2)c2ccccc21)Nc1cccc(C(F)(F)F)c1`, the survival was inactive: 104%.

Regarding `CCn1c(CCc2ccccc2)n[nH]c1=S`, the survival is inactive: 102%. Regarding `CC(=O)NC1C(=O)N(C(C)C)c2ccccc21` (configuration not stated), the survival was inactive: 97%. Turning to `COc1cccc(CNCCNC(=O)c2nonc2N)c1`, the survival was inactive: 72%. In the case of `O=C(NCc1ccccc1Cl)c1cc2c(s1)-c1ccc(Cl)cc1SC2`, the survival was inactive: 60%. Take `CCSc1nc2c([nH]c3ccccc32)c(=O)n1CC`: the survival is inactive: 68%. With `CCOC(=O)CSc1nc(-c2ccc(C)cc2C)cc(-c2ccccc2)c1C#N`, the survival was inactive: 68%. For `CCOc1ccccc1NC(=O)N1CC(CC)Oc2ccccc21` (configuration not stated), the survival is inactive: 64%.

As for `Cc1ccc(C(=O)CSc2nc(-c3ccccc3)nc3c2CCCC3)cc1`, the survival is active: 36%.

`CC(NC(=O)CSc1ncccn1)c1ccccc1` (configuration not stated): the survival is inactive: 75%. Regarding `N#C/C(=C\C1CC=CCC1)c1nc2ccccc2[nH]1` (configuration not stated), the survival is inactive: 86%. With `Cc1nn(CCC(=O)Nc2cc(F)ccc2F)c(=O)c2nn(-c3ccccc3)c(C)c12` the figure was inactive: 99%. As for `O=C(CC1N=C2c3ccccc3N=C(SCc3cccc(Cl)c3)N2C1=O)NCc1ccc2c(c1)OCO2` (configuration not stated), the survival is inactive: 68%.

For the molecule `CC1CCCCN1C(=O)CSc1n[nH]c(-c2ccccc2Cl)n1` (configuration not stated), the survival is inactive: 96%. With `COc1cc(Nc2nc(SCC(=O)c3ccc(Br)cc3)nc3ccccc23)cc(OC)c1`, the survival was inactive: 92%. Turning to `COc1ccc(-c2cn(-c3ccc(C)cc3)c(S(=O)(=O)CC(=O)Nc3ccc(F)cc3)n2)cc1`, the survival is inactive: 150%.

For `COc1ccccc1NC(=O)c1cc(=O)c2ccc(C)c(C)c2o1`, the survival is active: 41%. Turning to `CCOC(=O)c1ccc2c(c1)N(CC(=O)N(C)c1ccccc1)C(=O)c1ccccc1S2`, the survival is inactive: 94%. In the case of `CCOc1ccc(CCNC(=O)c2cc3c(=O)oc4ccc(C)cc4c3s2)cc1OCC`, the survival was inactive: 67%.

As for `Cc1cc(C)c(NC(=O)CCS(=O)(=O)c2cc3c(cc2Cl)NC(=O)CO3)c(C)c1`, the survival is inactive: 80%. For `CCOc1ccc(NS(=O)(=O)c2cc3c(cc2Cl)NC(=O)CO3)cc1`, the survival was inactive: 107%. Consider `CCOc1ccc(N(C)S(=O)(=O)c2ccc3c(c2)CCCN3C(C)=O)cc1`, for which the survival is inactive: 86%. For `O=C(CSCn1nnc2c(=O)[nH]c(Cc3ccc(F)cc3)nc21)Nc1cccc(C(F)(F)F)c1`, the survival is inactive: 64%. `COc1cc2c(cc1OC)C(COc1cccc(C(F)(F)F)c1)N(C(=O)c1ccc(S(=O)(=O)N3CCCC3)cc1)CC2` (configuration not stated): the survival is inactive: 80%. As to `CCc1ccccc1NC(=O)C(=O)NCCCN1CCOCC1`, the survival is inactive: 79%. On to `CCC(C)NC(=O)C1CCN(S(=O)(=O)c2ccc3c(c2)CCCN3C(C)=O)CC1` (configuration not stated), for which the survival was inactive: 67%. Consider `O=C1CCCc2cc(S(=O)(=O)N3CCCC(C(=O)NCc4ccccc4)C3)ccc2N1` (configuration not stated), for which the survival was inactive: 73%. As for `CC(=O)c1cccc(NC(=O)c2nc(-c3ccccc3)n(-c3ccccc3)n2)c1`, the survival is inactive: 56%.

With `Cc1cc(C)c(NC(=O)CN(C)S(=O)(=O)c2ccc3c(c2)CCC(=O)N3)c(C)c1`, the survival is inactive: 78%. `COc1cc2c(cc1OC)n(Cc1cccc(C(F)(F)F)c1)c(=O)n1nc(-c3ccccc3)nc21`: the survival is inactive: 94%. As to `O=C(Oc1cccc2cccnc12)c1ccccc1`, the survival was active: 2%. As to `COc1nc(NCCO)nc(Nc2ccccc2F)n1`, the survival was inactive: 62%. For the molecule `COc1cccc(NC(=O)CCNS(=O)(=O)c2ccc3c(c2)oc(=O)n3C)c1`, the survival was inactive: 90%. On to `COc1ccc(CNC(=O)c2cc3c(=O)n(Cc4ccco4)ccc3nc2C)cc1`, for which the survival is inactive: 102%.

For `Cc1ccccc1NC(=O)Cn1cc(C(=O)c2cccs2)c2ccccc21`, the survival was inactive: 131%. `CCc1ccc(NC(=O)CSC2=Nc3ccccc3C3=NC(CCC(=O)NCc4ccccc4)C(=O)N23)cc1` (configuration not stated): the survival was inactive: 106%.
